Results published in the supplement of paper PMC10126150.
Sequences with one replicate were seen in a single cluster, so their values are uncertain.

Tested on: ATP
Assay: switch fluorescence ratio, 500 uM ATP over buffer (Cy3 cluster intensity, sum of 5 cycles each) (fold (ratio)); higher = stronger signal-on switching upon ATP binding; sequences stand for … in TCGTCGGCAGCGTCAGATGTGTATAAGAGACAGTTTTTTTTTTTTTTTTTTTTTTTTT…TC
Conditions: aptamer strand: ATP DNA aptamer (quencher-CACCTGGGGGAGTATTGCGGAGGAAGG + anchor), 100 nM annealed; ATP concentration: 500 uM; one replicate
Method in brief: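 The quencher-labelled ATP aptamer, at 100 nM, was annealed to Cy3-labelled switching-strand clusters on a modified Illumina MiSeq flow-cell. The clusters were imaged in selection buffer, then after 15 min with 500 uM ATP at 22 °C, and this buffer/ATP cycle ran five times with NaOH stripping and re-annealing between runs. Per-cluster fluorescence ratios, summed target-cycle over summed buffer-cycle Cy3 intensity, were averaged per switch-domain sequence. Clusters outside 100-1000 RFU were excluded.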
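Further: ATP exposure 15 min at 22 °C before imaging.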

| Sequence | switch fluorescence ratio |
| --- | --- |
| AGTACCTACC | 1.59 |
| ACGGTGTCGT | 1.04 |
| TTTCGTCCCC | 1.05 |
| GTCCGAGATT | 1.1 |
| GCAATAGTGC | 1.69 |
| TCCAATCTGT | 0.958 |
| TTCGTATTGG | 0.97 |
| AACTTTTGGG | 0.982 |
| CATTGTGCGG | 0.995 |
| GGCCGGTCCT | 1 |
| TTATTATACC | 1.04 |
| ATCTCAGGAT | 0.992 |
| AGCTTTGAAG | 1 |
| GTAATCTGGT | 0.965 |
| CGCAGGGAAT | 0.988 |
| CCTCAGTATT | 1.51 |
| CATTCTGTGG | 0.997 |
| CTCTATCAG | 0.983 |
| TGAATGCGAC | 1 |
| AGAGACTGG | 0.995 |
| GCCACTGAGG | 1.02 |
| GGGAGAGCCA | 0.953 |
| GCGGAATGTT | 1.01 |

| Sequence | switch fluorescence ratio |
| --- | --- |
| GTTTGAGATG | 0.971 |
| GGTGTATGCA | 0.965 |
| GAATTGCATG | 0.999 |
| CTGCGATTG | 1.07 |
| CGCCGGCTGT | 0.991 |
| ACGAAGTAAA | 1.02 |
| TGGAGTTCGG | 0.985 |
| TAAGAAGGA | 0.994 |
| CGAAAAACGG | 0.998 |
| AAATTATCCT | 1.08 |
| AGATGCAAGT | 1.01 |
| AGCTATGTAT | 1.02 |
| CCAAGTGGTA | 1.01 |
| CCTGGCTCTT | 1.02 |
| ATTTTCACCC | 1.05 |
| TACGAGTT | 0.996 |
| TAGCCATCTT | 0.989 |
| GTCATACTAC | 1.07 |
| TACCGAGGGC | 1.1 |
| AAGATGAAAA | 1.03 |
| CTTCACTCAC | 1.26 |
| ATCGCAGAGA | 0.949 |
| TCAAAGAGAG | 1.02 |

| Sequence | switch fluorescence ratio |
| --- | --- |
| GAATTATATG | 1.01 |
| CGGTGTCGT | 1.06 |
| GCGGATCCTG | 1.02 |
| CGGTCACTAA | 1.02 |
| CGACTCGTGG | 1 |
| TAAGAACTC | 0.984 |
| CCCATAAACC | 1.01 |
| TTGTCTAGC | 1.03 |
| CGTCGTTTCG | 0.988 |
| GAGATCTGCA | 0.964 |
| TCGTAGGGCT | 1 |
| ATTAGGAC | 0.933 |
| CTCTGTGCCC | 1.1 |
| ACGCTGAGGG | 1.06 |
| ATAATATTTA | 1.01 |
| AGGACAGGA | 1.04 |
| TCCTTTGTCT | 1.05 |
| TATATGTTTA | 1.04 |
| TCTTACCGAC | 1.44 |
| AGGCACTATA | 1 |
| CACCAAAGTA | 1.01 |
| ACGATGTTCG | 0.984 |
| GATCCGATA | 1.05 |

| Sequence | switch fluorescence ratio |
| --- | --- |
| GGAGTTGACT | 1 |
| GGCCGTTGCG | 1.01 |
| ATAACCTGCG | 1.29 |
| GGAAGGTGT | 1.25 |
| TTCGGAGCTC | 1.11 |
| GGATGATTGT | 0.997 |
| CGCACGGTTC | 1.24 |
| ATATAAAAT | 1.28 |
| TTATGATGTT | 1.01 |
| CTGGTATGCC | 1.3 |
| TGATTGGAGT | 0.972 |
| GGGTTCCAGC | 1.01 |
| ATGGTAGGCA | 1.01 |
| CGAGGTGCGT | 1.01 |
| TTAGTGAATG | 0.964 |
| GAGTGTCGCT | 0.971 |
| GCTCTGCGGT | 2.07 |
| GCCAGTGTA | 1.02 |
| ATGTGGTGTA | 0.964 |
| CAGTTTAGTA | 0.946 |
| GACTCAGAAA | 1.28 |
| AAGAAGCGTC | 1.16 |
| CGTCGGGTGC | 1.07 |

| Sequence | switch fluorescence ratio |
| --- | --- |
| ACATCTGAAA | 1.01 |
| GCCTGATACC | 1.06 |
| CAAAATAGTA | 0.969 |
| AGTACACAGC | 1.07 |
| AGCTTCCGGT | 1.04 |
| CCTAGCGC | 1.03 |
| GCAAGCTCTC | 1.76 |
| ATCGGTGGGC | 0.988 |
| CAACTTCTTG | 1.01 |
| AACGGGTAGG | 0.961 |
| GGCGGGAGGC | 1.01 |
| TAAGCGTCGG | 1.01 |
| TGTGCTACGG | 1.01 |
| CGATTAAGTT | 0.999 |
| AGGATGTATA | 0.99 |
| GCCATTTCTA | 0.973 |
| TAATCAAAGA | 1.02 |
| ATTACACCTG | 1.06 |
| AATGATGGGA | 1.01 |
| AGATTGTA | 0.98 |
| CGCTCCCGGG | 1.68 |
| CTGGATATAG | 1.02 |
| TGGAAAAAAA | 1.02 |

| Sequence | switch fluorescence ratio |
| --- | --- |
| GAAATCGAGG | 0.99 |
| ATTGGAGAC | 0.982 |
| GTGACAGGAG | 1 |
| CACCGTGCCT | 1.1 |
| AAGCTATACT | 3.99 |
| GTAATGAT | 0.969 |
| TTGTCTTCA | 0.98 |
| GCTACTACTT | 1.05 |
| TTTATCTATG | 0.992 |
| TCCTGACAAC | 1.17 |
| TAGATTTCAT | 1.02 |
| CTGAATTTTT | 1.06 |
| TCCACCGAGG | 1.25 |
| TAACGTGTCC | 1.06 |
| AGTATCAAAC | 0.991 |
| CTTTTCCTTA | 1 |
| TGGGTTCTGC | 1.07 |
| TGCCATTTTG | 0.962 |
| GCTTGGAATA | 1.09 |
| GCAACATTAA | 1.01 |
| GCTGGCTCGG | 0.96 |
| ACAAGCATTT | 1 |
| CGATGGAGCA | 1.02 |

| Sequence | switch fluorescence ratio |
| --- | --- |
| TCGCTTTACG | 1.21 |
| TTCCGTAATG | 2.55 |
| ATATTTGACG | 1.04 |
| ACTCAGTTTG | 1.01 |
| ATGCGTGAGC | 0.993 |
| GTTAGCACCA | 0.985 |
| TCGAGTCT | 1.01 |
| GTGTGACAAG | 1.01 |
| ACCTCCGTCG | 1.7 |
| AAGCTACTC | 1.74 |
| TGAGAGGAAT | 0.965 |
| AGGCTACGAT | 1.02 |
| CGACTCGGCT | 0.963 |
| CGGGTTGAAA | 1.04 |
| ATATTCTATC | 0.993 |
| ACTGGGACGG | 1.09 |
| AGTTAATCG | 0.983 |
| ACTTGAGTAC | 1.01 |
| AGTAGAGAG | 1.02 |
| GCCAGCCGCA | 1.08 |
